Laboratory results as given in publication PMC4336329 (PLoS ONE, 2015).
In all, about 310,000 compounds went through this assay and about 2,200 (0.71%) showed an effect of 50% or more. Effects have a minus sign here. The list shows a part of the results.

These compounds were tested against human ether-à-go-go-related gene (hERG) potassium channel (human, UniProt Q12809) (assay: primary screen, population patch clamp on CHO cells stably expressing hERG).
human ether-à-go-go-related gene (hERG) potassium channel, sequence (Q12809 whole entry, looked up): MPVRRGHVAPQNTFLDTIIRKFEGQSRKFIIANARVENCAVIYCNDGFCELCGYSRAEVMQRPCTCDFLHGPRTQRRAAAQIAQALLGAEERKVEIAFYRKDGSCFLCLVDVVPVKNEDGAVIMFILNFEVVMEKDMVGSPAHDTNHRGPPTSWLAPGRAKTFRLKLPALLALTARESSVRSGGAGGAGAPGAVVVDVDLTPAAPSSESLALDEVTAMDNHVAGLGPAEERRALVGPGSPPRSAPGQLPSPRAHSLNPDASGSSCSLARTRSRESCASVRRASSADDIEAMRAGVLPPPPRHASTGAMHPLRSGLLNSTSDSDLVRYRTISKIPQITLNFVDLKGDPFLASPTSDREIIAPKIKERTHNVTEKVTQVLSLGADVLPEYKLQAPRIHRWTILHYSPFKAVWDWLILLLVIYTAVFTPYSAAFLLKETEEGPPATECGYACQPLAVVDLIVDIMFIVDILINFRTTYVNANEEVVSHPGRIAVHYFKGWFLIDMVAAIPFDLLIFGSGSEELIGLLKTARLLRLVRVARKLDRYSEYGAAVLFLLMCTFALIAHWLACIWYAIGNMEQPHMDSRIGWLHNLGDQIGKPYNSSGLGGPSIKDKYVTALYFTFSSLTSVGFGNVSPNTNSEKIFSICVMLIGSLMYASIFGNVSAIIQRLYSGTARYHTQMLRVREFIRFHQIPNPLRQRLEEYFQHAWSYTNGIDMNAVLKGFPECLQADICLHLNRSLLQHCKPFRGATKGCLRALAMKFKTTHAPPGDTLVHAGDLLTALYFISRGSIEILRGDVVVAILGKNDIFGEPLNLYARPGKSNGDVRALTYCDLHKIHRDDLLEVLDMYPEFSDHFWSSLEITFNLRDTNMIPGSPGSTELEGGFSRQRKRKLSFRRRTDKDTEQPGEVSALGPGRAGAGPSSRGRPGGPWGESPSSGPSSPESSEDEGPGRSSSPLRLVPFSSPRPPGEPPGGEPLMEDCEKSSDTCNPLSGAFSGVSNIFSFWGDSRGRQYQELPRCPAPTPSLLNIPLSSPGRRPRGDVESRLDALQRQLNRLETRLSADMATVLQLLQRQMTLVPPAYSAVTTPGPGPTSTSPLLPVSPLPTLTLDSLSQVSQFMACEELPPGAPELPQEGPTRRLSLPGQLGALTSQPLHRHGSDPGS

SMILES	hERG current change (%, negative = inhibition) at 1uM
O=C(Nc1ccc(S(=O)(=O)Nc2ncccn2)cc1)c1ccccc1NS(=O)(=O)c1ccc(Cl)cc1	12.9%
O=C(CSc1nc2ccccc2s1)NCC1CCCO1 (stereo not drawn)	9.94%
COc1ccc(OCCSc2nc3ccccc3n2CC(=O)O)cc1	12.3%
CSc1nnc(C)c(=O)n1COC(=O)c1ccc(S(=O)(=O)N(C)C)cc1	-0.398%
Cc1ccc(C(=O)NCCn2ccc3ccccc32)cc1[N+](=O)[O-]	-2.16%
O=c1nc2ccccc2c(NS(=O)(=O)c2ccc(Cl)cc2)n1-c1ccccc1	-4.68%
CCCOc1ccc(/C=C2\SC(N)=NC2=O)cc1OC	10.1%
O=C(Nc1cc(Cl)cc(Cl)c1)c1ccno1	10.7%
CCC1CN(C(=O)N2CCC(C(=O)NCc3cc(OC)c(OC)c(OC)c3)CC2)c2ccccc2O1 (stereo not drawn)	17.9%
CCOc1ccc(S(=O)(=O)N2CCCC(C(=O)NCc3cccnc3)C2)cc1 (stereo not drawn)	6.61%
Cc1ccc(COc2ccsc2-c2n[nH]c(=S)n2C)cc1	8.51%
NC(=O)CC[C@@H]1NC(=O)[C@@H]2CCCN2C(=O)c2cc([N+](=O)[O-])cc(I)c2NCCC[C@@H](C(N)=O)NC1=O	7.17%
Cc1cccc(OCC(=O)NCCCNC(=O)c2cccnc2)c1	24.7%
O=C(NCCCCNC(=O)c1c(Cl)cccc1Cl)c1c(Cl)cccc1Cl	7.84%
NC(=O)C(c1ccc(Cl)cc1)c1ncc(C(F)(F)F)cc1Cl (stereo not drawn)	5.34%
CCc1nc2ccc(C(=O)N(CC)CC(=O)Nc3c(F)cccc3F)cc2nc1CC	11.4%
O=C(Nc1cccc(Cl)c1Cl)C1CCN(C(=O)c2cccs2)CC1	3.9%
O=C(NCC(O)c1ccc([N+](=O)[O-])cc1)C(c1ccccc1)c1ccccc1 (stereo not drawn)	12%
N#CCC(=O)N/N=C/c1ccc(OS(=O)(=O)c2ccccc2)cc1	17.9%
C/C(=N\NC(=O)c1c(C)nc2ccccn12)c1cccc([N+](=O)[O-])c1	6.38%
COCCNC(=O)C1CCC(CNS(=O)(=O)c2cccc3nsnc23)CC1 (stereo not drawn)	12.6%
O=C1/C(=C/c2ccc([N+](=O)[O-])cc2)N2CCC1CC2	5.22%

SMILES	hERG current change (%, negative = inhibition) at 1uM
CCNc1ccc([N+](=O)[O-])cc1	8.09%
NC(=S)N/N=C/c1ccc(-n2nncc2-c2ccc(Cl)cc2)cc1	-7.18%
COc1cc(C2C(C#N)=C(N)Oc3c2ccc2ccccc32)ccc1OCC(=O)Nc1cccc(C)c1 (stereo not drawn)	14.4%
O=C(NCc1ccccc1)NC(=O)c1ccc(Cl)cc1	20%
COC(=O)C1=C(c2ccc(OC)c(OC)c2)C[C@@H]2CC[C@H]1N2C(=O)NCc1cccc2ccccc12	6.27%
Cc1ccc(OCC(=O)N2CCN(S(C)(=O)=O)CC2)cc1	12.4%
Brc1ccc(-[n+]2c(-c3ccccc3)cc(-c3ccccc3)cc2-c2ccccc2)cc1.[O-][Cl+3]([O-])([O-])[O-]	-18.7%
CC(=O)O.CC(NO)/C(=N\O)c1cccs1 (stereo not drawn)	17.2%
O=C(Nc1cccs1)NC1CCCC1	6.67%
CCCCCCCNC(=O)c1ccc(N2CCC3(CC2)OCCO3)c([N+](=O)[O-])c1	-1.11%
CC(C)c1ccc(NC(=S)NN(c2ccccc2)c2ccccc2)cc1	15%
c1ccc([C@@H]2CO2)cc1	18%
COc1cccc(/C=C2\CCC(C3CCCC3)C2=O)c1 (stereo not drawn)	11.3%
COc1ccc(S(N)(=O)=O)cc1C(=O)OCC1CCCCC1	0.182%
CC1CCCCC12NC(=O)N(CC(=O)N1CCN(C(=O)c3cccs3)CC1)C2=O (stereo not drawn)	3.76%
O=C(O)/C=C/C(=O)NCCCc1ccccc1	8.24%
CCO/C=C1\C(=O)N(CC)c2ccccc21	5.86%
CCC(C(=O)NCc1ccncc1)c1ccccc1 (stereo not drawn)	14.8%
O=C(CN1CC[n+]2c(-c3cccs3)csc21)c1ccc(-c2ccccc2)cc1.[Br-]	-13.2%
O=C(COC(=O)CCCSc1nc2ccccc2[nH]1)Nc1cccc(F)c1	1.63%
COc1ccc(CCNC(=O)CSc2ccsc2[N+](=O)[O-])cc1OC	0.368%
O=C(Nc1cccc2cccc(NC(=O)c3ccco3)c12)c1ccco1	12.3%

SMILES	hERG current change (%, negative = inhibition) at 1uM
Cc1ccc(C2=C(O)c3ccccc3C(=O)C2=O)cc1	12.5%
Cc1nc(C)c(-c2csc(Nc3ccc(C(=O)O)c(O)c3)n2)s1	12.2%
CCCc1c(O)nc(SCCN(CC)CC)[nH]c1=O.Cl	15.2%
Cc1ccc(C(=C2C3C=CC2C2C(=O)NC(=O)C32)c2ccc(C)cc2)cc1 (stereo not drawn)	14.5%
Cl.N=c1sccn1CC(=O)Nc1ccc(Cl)cc1[N+](=O)[O-]	4.9%
O=C(C1=C[C@@H](c2coc3ccccc3c2=O)C[C@@H](OCCCCO)O1)N1CCOCC1	15.5%
CC1CCN(C(=S)c2ccc3c(c2)OCO3)CC1	4.69%
CN1CCN(C(=O)COc2ccc(S(=O)(=O)N(C)Cc3ccccc3)cc2)CC1	9.21%
O=C1c2ccccc2CN1CCSC(=S)N1CCSCC1	8.94%
Cc1c(NC(=O)c2nn(C)c(=O)c3ccccc23)c(=O)n(-c2ccccc2)n1C	13.3%
Cc1ccc(-c2ccc(S(=O)(=O)Nc3cccnc3)cc2)cc1	8.57%
COc1ccc(NC(=O)CNC(=O)c2nn(-c3ccc(OC)c(OC)c3)c(=O)c3ccccc23)c(OC)c1	18.1%
CCC(C)Sc1ccc([C@@H]2[C@@H]3C(=O)N(C)C(=O)[C@@H]3[C@]3(C(=O)OC)CCCCN23)cc1.O=C(O)C(F)(F)F (stereo partly drawn)	15.5%
COc1ccc(COc2cc(-c3cccc(OC)c3)nc3ccc(N)cc23)cc1	10%
CC1(C)Nc2ccccc2N(CC(=O)N2CCCCC2)C1=O	10.8%
O=C(COC(=O)c1cc([N+](=O)[O-])ccc1N1CCOCC1)c1ccccc1	-8.48%
COc1ccc(CSCC(=O)N/N=C/c2ccccc2OCc2ccccc2)cc1	12.8%
COc1ccc2c(Cl)c(C(=O)NCCCn3ccnc3)sc2c1Cl	11.4%
CCCCCc1cc(=O)oc2c(C(CCN3CCCC(C)C3)c3ccc4c(c3)OCO4)c(OC)cc(OC)c12 (stereo not drawn)	9.85%
O=C1C(=O)N(CC2CCCO2)C(c2ccco2)/C1=C(/O)c1ccc(F)cc1 (stereo not drawn)	-16.1%
COc1ccc(CCN2CCCC(CN(C)Cc3cc(OC)ccc3OC)C2)cc1 (stereo not drawn)	-10.5%
COc1ccc2cc3cc(C(=O)NCCC(C)C)oc3nc2c1	7.3%

SMILES	hERG current change (%, negative = inhibition) at 1uM
CCCO/N=C1/C(=O)N(c2ccccc2)c2ccccc21	-0.309%
CCc1ccc(OCC(=O)NNC(=S)NC(=O)C2CCCCC2)c(Br)c1	7.86%
CCC(=O)N1CCN(CCN=Cc2c(O)n(C)c(=O)n(C)c2=O)CC1	16.1%
CCOc1ccccc1OCC(=O)Nc1nnc(C)s1	11.5%
COc1ccc(CCNC(=O)CCc2cc(OC)c(OC)c(OC)c2)cc1	14.4%
CCCCCc1ccc(OCCCC[n+]2cccc(C)c2)c(CCCCC)c1.[Cl-]	-16.2%
CC1CCCN(CCCNC(=O)CN2C(=O)CSc3ccc(S(=O)(=O)N4CCOCC4)cc32)C1 (stereo not drawn)	14.8%
CCOC(=O)C1CCN(C(C)C(=O)c2c[nH]c3ccccc23)CC1 (stereo not drawn)	-1.89%
CC(=O)Nn1cnc2c(c1=O)C1(CCCCC1)Cc1ccccc1-2	9.15%
O=C(N/C=C/c1ccccc1)Nc1ccc(Cl)cc1	12.8%
COCCN(C(=O)Cc1cccs1)C(C(=O)NC1CCCC1)c1ccc(OC)c(OC)c1 (stereo not drawn)	10.1%
COC(=O)CCC(=O)OC1(C)C(=O)C=C2C=C(C3CC3)N(CC3CC3)C=C2C1=O (stereo not drawn)	13.7%
Cc1nnc(SC(C)C(=O)N2CCc3ccccc32)s1 (stereo not drawn)	8.85%
O=C(O)C1Cc2ccccc2CN1C(=O)c1ccco1 (stereo not drawn)	12.7%
CCOC(=O)c1c(C)[nH]c(C(=O)COC(=O)c2[nH]c(C)c(C(C)=O)c2C)c1C	15.5%
Cc1cc2c(=O)n(C)c(SCC(=O)Nc3ccccc3C)nc2s1	1.7%
Fc1ccc(Oc2cc(N3CCOCC3)nc(-c3ccccc3)n2)c(F)c1	12.8%
Cc1nnc(NC(=O)CCC(=O)NC2CCCCCCC2)s1	10.9%
CC1(C)C(=O)Nc2ccccc2N1C(=O)c1ccc([N+](=O)[O-])cc1	-2.42%
COc1cccc(CNC(=O)C2CCCN(C(=O)c3ccc(Cl)cc3)C2)c1 (stereo not drawn)	2.65%
C#CC[N+]1(CC#Cc2ccccc2)CCCCC1.[I-]	12.5%
